# This is one part of the list.
# B1: XCL (Xerocomus chrysenteron) (protein)
# chain: MSYSITLRVYQTNRDRGYFSIVEKTVWHFANGGTWSEANGAHTLTQGGSGTSGVLRFLSTKGERITVAVGVHNYKRWCDVVTGLKPDETALVINPQYYNNGGRDYVREKQLAEYSVTSAIGTKVEVVYTVAEGNNLEANVIFS
# Assays:
# Test in all cases: glycan array binding signal (z-score within array); higher = stronger binding
# Details in all cases: glycan notation: IUPAC condensed, linker removed
# [1] = biological target: Neu5Ac(a2-3)Gal(b1-4)GlcNAc(b1-3)GalNAc
# Outline: (§1)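 Columns mapping to the same glycan were averaged after glycan names were converted to IUPAC-condensed notation. The data come from 3228 arrays in the Consortium for Functional Glycomics database, limited to those with an available protein sequence. Binding is reported as a within-array Z-score averaged across arrays of one protein sequence and across linkers.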
# [2] = biological target: Neu5Ac(a2-3)Gal(b1-4)GlcNAc(b1-6)[Gal(b1-3)]GalNAc
# Outline: as §1
# [3] = biological target: Neu5Ac(a2-3)Gal(b1-4)GlcNAc(b1-6)[Neu5Ac(a2-3)Gal(b1-3)]GalNAc
# Outline: as §1
# [4] = biological target: Neu5Ac(a2-3)Gal(b1-4)GlcNAc6S
# Outline: as §1
# [5] = biological target: Neu5Ac(a2-3)Gal(b1-4)[Fuc(a1-3)]GlcNAc
# Outline: as §1
# [6] = biological target: Neu5Ac(a2-3)Gal(b1-4)[Fuc(a1-3)]GlcNAc(b1-3)Gal
# Outline: as §1
# [7] = biological target: Neu5Ac(a2-3)Gal(b1-4)[Fuc(a1-3)]GlcNAc(b1-3)Gal(b1-4)GlcNAc
# Outline: as §1
# [8] = biological target: Neu5Ac(a2-3)Gal(b1-4)[Fuc(a1-3)]GlcNAc(b1-3)Gal(b1-4)[Fuc(a1-3)]GlcNAc(b1-3)Gal(b1-4)[Fuc(a1-3)]GlcNAc
# Outline: as §1
# [9] = biological target: Neu5Ac(a2-3)Gal(b1-4)[Fuc(a1-3)]GlcNAc(b1-3)GalNAc
# Outline: as §1
# [10] = biological target: Neu5Ac(a2-3)Gal(b1-4)[Fuc(a1-3)]GlcNAc(b1-6)[Gal(b1-3)]GalNAc
# Outline: as §1
# [11] = biological target: Neu5Ac(a2-3)Gal(b1-4)[Fuc(a1-3)]GlcNAc6S
# Outline: as §1
# [12] = biological target: Neu5Ac(a2-3)Gal6S(b1-4)GlcNAc
# Outline: as §1
# [13] = biological target: Neu5Ac(a2-3)Gal6S(b1-4)[Fuc(a1-3)]GlcNAc
# Outline: as §1
# Neu5Ac(a2-3)GalNAc = biological target: Neu5Ac(a2-3)GalNAc
# Outline: as §1
# [14] = biological target: Neu5Ac(a2-3)GalNAc(b1-4)GlcNAc
# Outline: as §1
# [15] = biological target: Neu5Ac(a2-3)[GalNAc(b1-4)]Gal(b1-4)Glc
# Outline: as §1
# [16] = biological target: Neu5Ac(a2-3)[GalNAc(b1-4)]Gal(b1-4)GlcNAc
# Outline: as §1
# [17] = biological target: Neu5Ac(a2-3)[GalNAc(b1-4)]Gal(b1-4)GlcNAc(b1-3)GalNAc
# Outline: as §1
# [18] = biological target: Neu5Ac(a2-3)[Neu5Ac(a2-6)]GalNAc
# Outline: as §1
# Neu5Ac(a2-6)Gal = biological target: Neu5Ac(a2-6)Gal
# Outline: as §1
# [19] = biological target: Neu5Ac(a2-6)Gal(b1-3)GlcNAc(b1-3)[Gal(b1-4)GlcNAc(b1-6)]Gal(b1-4)Glc
# Outline: as §1
# Neu5Ac(a2-6)Gal(b1-4)Glc = biological target: Neu5Ac(a2-6)Gal(b1-4)Glc
# Outline: as §1
# [20] = biological target: Neu5Ac(a2-6)Gal(b1-4)GlcNAc
# Outline: as §1
# [21] = biological target: Neu5Ac(a2-6)Gal(b1-4)GlcNAc(b1-2)Man(a1-3)Man(b1-4)GlcNAc(b1-4)GlcNAc
# Outline: as §1
# [22] = biological target: Neu5Ac(a2-6)Gal(b1-4)GlcNAc(b1-2)Man(a1-3)[Gal(b1-4)GlcNAc(b1-2)Man(a1-6)]Man(b1-4)GlcNAc(b1-4)GlcNAc
# Outline: as §1
# [23] = biological target: Neu5Ac(a2-6)Gal(b1-4)GlcNAc(b1-2)Man(a1-3)[GlcNAc(b1-2)Man(a1-6)]Man(b1-4)GlcNAc(b1-4)GlcNAc
# Outline: as §1
# [24] = biological target: Neu5Ac(a2-6)Gal(b1-4)GlcNAc(b1-2)Man(a1-3)[GlcNAc(b1-2)Man(b1-4)GlcNAc(b1-2)Man(a1-6)]Man(b1-4)GlcNAc(b1-4)GlcNAc
# Outline: as §1
# [25] = biological target: Neu5Ac(a2-6)Gal(b1-4)GlcNAc(b1-2)Man(a1-3)[Man(a1-6)]Man(b1-4)GlcNAc(b1-4)GlcNAc
# Outline: as §1
# [26] = biological target: Neu5Ac(a2-6)Gal(b1-4)GlcNAc(b1-2)Man(a1-3)[Neu5Ac(a2-6)Gal(b1-4)GlcNAc(b1-2)Man(a1-6)]Man(b1-4)GlcNAc(b1-4)GlcNAc
# Outline: as §1
# [27] = biological target: Neu5Ac(a2-6)Gal(b1-4)GlcNAc(b1-2)Man(a1-6)Man(b1-4)GlcNAc(b1-4)GlcNAc
# Outline: as §1
# [28] = biological target: Neu5Ac(a2-6)Gal(b1-4)GlcNAc(b1-2)Man(a1-6)[Gal(b1-4)GlcNAc(b1-2)Man(a1-3)]Man(b1-4)GlcNAc(b1-4)GlcNAc
# Outline: as §1
# [29] = biological target: Neu5Ac(a2-6)Gal(b1-4)GlcNAc(b1-2)Man(a1-6)[GlcNAc(b1-2)Man(a1-3)]Man(b1-4)GlcNAc(b1-4)GlcNAc
# Outline: as §1
binder,measurement,setting,value
B1,glycan array binding signal (z-score),[1],0.473
same,glycan array binding signal (z-score),[2],1.14
same,glycan array binding signal (z-score),[3],0.681
same,glycan array binding signal (z-score),[4],-0.311
same,glycan array binding signal (z-score),[5],-0.3
same,glycan array binding signal (z-score),[6],-0.326
same,glycan array binding signal (z-score),[7],-0.257
same,glycan array binding signal (z-score),[8],-0.264
same,glycan array binding signal (z-score),[9],-0.242
same,glycan array binding signal (z-score),[10],-0.112
same,glycan array binding signal (z-score),[11],-0.308
same,glycan array binding signal (z-score),[12],-0.311
same,glycan array binding signal (z-score),[13],-0.321
same,glycan array binding signal (z-score),Neu5Ac(a2-3)GalNAc,0.541
same,glycan array binding signal (z-score),[14],-0.279
same,glycan array binding signal (z-score),[15],-0.324
same,glycan array binding signal (z-score),[16],-0.325
same,glycan array binding signal (z-score),[17],-0.149
same,glycan array binding signal (z-score),[18],0.962
same,glycan array binding signal (z-score),Neu5Ac(a2-6)Gal,-0.321
same,glycan array binding signal (z-score),[19],-0.319
same,glycan array binding signal (z-score),Neu5Ac(a2-6)Gal(b1-4)Glc,-0.313
same,glycan array binding signal (z-score),[20],-0.318
same,glycan array binding signal (z-score),[21],-0.245
same,glycan array binding signal (z-score),[22],-0.322
same,glycan array binding signal (z-score),[23],0.487
same,glycan array binding signal (z-score),[24],-0.311
same,glycan array binding signal (z-score),[25],-0.3
same,glycan array binding signal (z-score),[26],-0.324
same,glycan array binding signal (z-score),[27],-0.279
same,glycan array binding signal (z-score),[28],-0.32
same,glycan array binding signal (z-score),[29],1.25

# — the supplement of paper PMC8728848
